Assay results reported in patent publication US20220024991A1 (GENOME PROTECTION, published 2022).
Changes are numbered by the printed parent chain. Names may count otherwise.

B1: TEM1-AD (ligand)
chain: MSGLRINSAKDDAAGQAIANRADSNIKGLTQASRNAADGISIAQTTEGALNEINNNLQRVRELSVQATAGANADAALKAIQAEIQQRLEEIDRVSQQTQAAAVKVLSQDNAMAIQVGANDGAAITIDLQKIDVKSLGLDGFNVNSPGSTANPLASIDSALSKVDAVRSSLGAIQNRFDSAITNLGNTVTNLNSARSRIEDADYATEVSQMSKAQILQQAGTSVLAQANQVPQNVLSLLVPRGSHHHHHHG
B2: TEM1-49A (ligand)
chain: B1 chain with I18A, A22F, D23T
B3: TEM1-53A (ligand)
chain: B1 chain with D23T
B4: TEM1-54D (ligand)
chain: B1 chain with A22F
B5: TEM1-49E (ligand)
chain: B1 chain with I18E, A22F, D23T
B6: TEM1-49T (ligand)
chain: B1 chain with I18T, A22F, D23T
B7: TEM1-58E (ligand)
chain: B1 chain with A22F, D23T, K27E
B8: TEM2-ADT (ligand)
chain: B1 chain with A22F, D23T, I215A, L216D, V223T
B9: TEM2-ADD (ligand)
chain: B1 chain with A22F, D23T, I215A, L216D, L224D
B10: TEM2-ANT (ligand)
chain: B1 chain with A22F, D23T, I215A, L216N, V223T
B11: TEM2-AND (ligand)
chain: B1 chain with A22F, D23T, I215A, L216N, L224D
B12: TEM2-AST (ligand)
chain: B1 chain with A22F, D23T, I215A, L216S, V223T
B13: TEM2-ASD (ligand)
chain: B1 chain with A22F, D23T, I215A, L216S, L224D
B14: TEM2-480A (ligand)
chain: B1 chain with A22F, D23T, I215A
B15: TEM2-481A (ligand)
chain: B1 chain with A22F, D23T, L216A
B16: TEM1-SD (ligand)
chain: B1 chain with A22S
B17: TEM2-488T (ligand)
chain: B1 chain with A22F, D23T, V223T
B18: TEM2-481D (ligand)
chain: MHHHHHHSGLRINSAKDDAAGQAIANRFTSNIKGLTQASRNAADGISIAQTTEGALNEINNNLQRVRELSVQATAGANADAALKAIQAEIQQRLEEIDRVSQQTQAAAVKVLSQDNAMAIQVGANDGAAITIDLQKIDVKSLGLDGFNVNSPGSTANPLASIDSALSKVDAVRSSLGAIQNRFDSAITNLGNTVTNLNSARSRIEDADYATEVSQMSKAQIDQQAGTSVLAQANQVPQNVLSLLR
B19: TEM2-481H (ligand)
chain: B18 chain with D222H
B20: TEM2-482D (ligand)
chain: B18 chain with D222L, Q223D
B21: TEM2-486D (ligand)
chain: B18 chain with D222L, T227D
B22: TEM2-K1D (ligand)
chain: B18 chain with I221K
B23: TEM2-D6D (ligand)
chain: B18 chain with D222L, Q223D, T227D
B24: TEM2492DG (ligand)
chain: MHHHHHHSGLRINSAKDDAAGQAIANRFTSNIKGLTQASRNAADGISIAQTTEGALNEINNNLQRVRELSVQATAGANADAALKAIQAEIQQRLEEIDRVSQQTQAAAVKVLSQDNAMAIQVGANDGAAITIDLQKIDVKSLGLDGFNVNSPGSTANPLASIDSALSKVDAVRSSLGAIQNRFDSAITNLGNTVTNLNSARSRIEDADYATEVSQMSKAQILQQAGDSVLAQG
B25: TEM3-AS (ligand)
chain: B1 chain with A22F, D23T, V234A, L235S
B26: TEM3-TA (ligand)
chain: B1 chain with A22F, D23T, V234T, L235A
B27: 33TEMX (ligand)
chain: B18 chain with I24A, F28A, D222L, Q223D, V229T
B28: 33TXT (ligand)
chain: MHHHHHHLVPRGSGLRINSAKDDAAGQAAANRATSNIKGLTQASRNAADGISIAQTTEGALNEINNNLQRVRELSVQATAGANADAALKAIQAEIQQRLEEIDRVSQQTQAAAVKVLSQDNAMAIQVGANDGAAITIDLQKIDVKSLGLDGFNVNSPGSTANPLASIDSALSKVDAVRSSLGAIQNRFDSAITNLGNTVTNLNSARSRIEDADYATEVSQMSKAQILDQAGTSTLAQANQVPQNVLSLLR
B29: TEM1-TD (ligand)
chain: B1 chain with A22T
B30: 33TXH (ligand)
chain: MLVPRGSHHHHHHSGLRINSAKDDAAGQAAANRATSNIKGLTQASRNAADGISIAQTTEGALNEINNNLQRVRELSVQATAGANADAALKAIQAEIQQRLEEIDRVSQQTQAAAVKVLSQDNAMAIQVGANDGAAITIDLQKIDVKSLGLDGFNVNSPGSTANPLASIDSALSKVDAVRSSLGAIQNRFDSAITNLGNTVTNLNSARSRIEDADYATEVSQMSKAQILDQAGTSTLAQANQVPQNVLSLLR
B31: 33TXL (ligand)
chain: B28 chain with L8G, V9S
B32: 33TX2 (ligand)
chain: B28 chain with L8A
B33: 33TX3 (ligand)
chain: B28 chain with L8A, V9A
B34: TEM1-DD (ligand)
chain: B1 chain with A22F, S24D
B35: 33MX (ligand)
chain: B1 chain with A22F, D23T

The binders below were run against T1, human TLR5 (293-hTLR5-LacZ reporter cells) (human, UniProt O60602 21-858) (assay: cell-based or functional assay).
T1 sequence (O60602 21-858): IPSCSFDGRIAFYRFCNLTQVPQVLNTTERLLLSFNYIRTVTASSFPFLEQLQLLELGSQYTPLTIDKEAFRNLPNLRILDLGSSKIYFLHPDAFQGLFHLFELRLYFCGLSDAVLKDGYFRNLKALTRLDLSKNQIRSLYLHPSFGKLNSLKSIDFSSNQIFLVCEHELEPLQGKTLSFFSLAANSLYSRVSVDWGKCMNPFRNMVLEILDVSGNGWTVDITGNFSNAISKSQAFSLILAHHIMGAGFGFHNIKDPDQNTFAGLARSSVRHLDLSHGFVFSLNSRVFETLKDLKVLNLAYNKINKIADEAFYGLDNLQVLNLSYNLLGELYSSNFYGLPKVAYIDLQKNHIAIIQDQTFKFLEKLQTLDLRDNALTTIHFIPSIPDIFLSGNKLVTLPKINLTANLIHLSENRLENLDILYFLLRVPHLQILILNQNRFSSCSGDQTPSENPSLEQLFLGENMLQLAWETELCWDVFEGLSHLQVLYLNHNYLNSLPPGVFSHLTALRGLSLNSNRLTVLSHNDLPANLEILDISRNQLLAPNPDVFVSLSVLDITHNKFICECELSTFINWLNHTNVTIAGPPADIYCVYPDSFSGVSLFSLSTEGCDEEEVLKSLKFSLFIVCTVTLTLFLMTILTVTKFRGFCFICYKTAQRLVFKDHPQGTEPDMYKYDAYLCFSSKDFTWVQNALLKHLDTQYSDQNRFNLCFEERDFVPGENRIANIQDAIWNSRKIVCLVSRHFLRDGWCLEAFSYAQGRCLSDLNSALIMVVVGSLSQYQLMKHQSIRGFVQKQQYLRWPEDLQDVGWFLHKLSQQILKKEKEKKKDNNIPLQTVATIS

| Binder | EC50 [ng/mL] | EC59(TEM)/EC50(33MX) [ratio] |
| --- | --- | --- |
| B1 | 0.089 | 2.8 |
| B2 | 0.113 | 1.4 |
| B3 | 0.112 | 1.4 |
| B4 | 0.146 | 1.7 |
| B5 | 0.147 | 1.6 |
| B6 | 0.137 | 1.5 |
| B7 | 0.181 | 2 |
| B8 | > 10 | – |
| B9 | > 10 | – |
| B10 | > 10 | – |
| B11 | > 10 | – |
| B12 | > 10 | – |
| B13 | > 10 | – |
| B14 | 0.662 | 7.5 |
| B15 | 0.836 | 9.7 |
| B16 | 0.117 | 2.8 |
| B17 | 0.103 | 1.2 |

| Binder | EC50 [ng/mL] | EC59(TEM)/EC50(33MX) [ratio] |
| --- | --- | --- |
| B18 | > 10 | – |
| B19 | > 10 | – |
| B20 | 0.441 | 5.8 |
| B21 | 0.479 | 6.3 |
| B22 | > 10 | – |
| B23 | > 2.5 | – |
| B24 | > 2.5 | – |
| B25 | 0.397 | 9.1 |
| B26 | 0.391 | 8.3 |
| B27 | 0.686 | 10.4 |
| B28 | 0.091 | 1.4 |
| B29 | 0.148 | 3.2 |
| B30 | 0.62 | 11.4 |
| B31 | 0.533 | 9.9 |
| B32 | 0.254 | 4.7 |
| B33 | 0.473 | 8.8 |
| B34 | 0.171 | 4 |

Biological target: T1, human TLR5 (293-hTLR5-LacZ reporter …)
Test: cell-based or functional assay
Remark: another data set of the same source

| Binder | EC50, ng/ml (NF-κB reporter enzyme activity) [ng/mL] | EC50, pM (NF-κB reporter enzyme activity) [pM] | Mut. EC50/EC50 33MX [ratio] | Mut. EC50/EC50 CBLB502 [ratio] |
| --- | --- | --- | --- | --- |
| B32 | 0.137 | 5.46 | 3.34 | 5.94 |
| B35 | 0.043 | 1.63 | – | 1.78 |
